Assay results: article PMC4336329 (PLoS ONE, 2015)
The whole screen tested about 310,000 compounds, of which about 2,200 (0.71%) showed an effect of 50% or more. The effect is printed as a negative number. This is one part of the list.

molecular target: human ether-à-go-go-related gene (hERG) potassium channel (human, UniProt Q12809); assay: primary screen, population patch clamp on CHO cells stably expressing hERG
Sequence (Q12809 whole entry, looked up): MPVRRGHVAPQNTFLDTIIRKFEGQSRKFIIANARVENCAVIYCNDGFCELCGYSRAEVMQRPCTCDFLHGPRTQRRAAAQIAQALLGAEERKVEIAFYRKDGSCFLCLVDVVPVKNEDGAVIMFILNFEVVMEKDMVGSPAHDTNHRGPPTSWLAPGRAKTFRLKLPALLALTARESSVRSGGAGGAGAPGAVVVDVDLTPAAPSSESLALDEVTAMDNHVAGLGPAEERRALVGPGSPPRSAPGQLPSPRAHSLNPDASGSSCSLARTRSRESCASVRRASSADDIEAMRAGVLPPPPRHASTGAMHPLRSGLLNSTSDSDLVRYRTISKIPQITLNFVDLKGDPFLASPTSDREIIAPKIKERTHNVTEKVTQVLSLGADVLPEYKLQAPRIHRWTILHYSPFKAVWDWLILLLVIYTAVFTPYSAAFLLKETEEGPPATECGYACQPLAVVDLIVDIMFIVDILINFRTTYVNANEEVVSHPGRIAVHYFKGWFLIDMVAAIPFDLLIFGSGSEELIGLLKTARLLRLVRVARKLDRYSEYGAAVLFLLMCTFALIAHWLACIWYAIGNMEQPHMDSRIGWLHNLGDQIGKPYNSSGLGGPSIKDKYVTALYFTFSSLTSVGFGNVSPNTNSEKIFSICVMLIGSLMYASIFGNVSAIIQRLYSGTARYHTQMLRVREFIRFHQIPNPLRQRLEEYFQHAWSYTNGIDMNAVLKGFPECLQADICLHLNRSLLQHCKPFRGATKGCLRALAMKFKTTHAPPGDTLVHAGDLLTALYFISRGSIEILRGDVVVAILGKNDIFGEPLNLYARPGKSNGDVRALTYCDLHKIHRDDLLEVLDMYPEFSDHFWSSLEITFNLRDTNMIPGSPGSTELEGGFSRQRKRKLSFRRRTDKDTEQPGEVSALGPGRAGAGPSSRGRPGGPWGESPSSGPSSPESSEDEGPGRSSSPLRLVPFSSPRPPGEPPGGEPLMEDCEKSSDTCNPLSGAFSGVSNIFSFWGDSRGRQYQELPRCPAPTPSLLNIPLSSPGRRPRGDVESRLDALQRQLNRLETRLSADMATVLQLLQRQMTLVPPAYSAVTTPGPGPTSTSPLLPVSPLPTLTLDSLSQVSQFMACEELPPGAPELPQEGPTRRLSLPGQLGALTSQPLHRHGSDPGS

Compound	hERG current change (%, negative = inhibition) at 1uM [%]
O=C(O)/C=C\C(=O)O.c1ccc2c(c1)CC1CNCc3cccc(c31)S2 (stereo not shown)	-9.05
CC1CCN(c2ccc(N3C(=O)C4CCCCC4C3=O)cc2[N+](=O)[O-])CC1 (stereo not shown)	18.2
CC(C)(C)NS(=O)(=O)c1ccc(NC(=O)CS(=O)(=O)Cc2ccccc2)cc1	15.9
CCNc1nc(Oc2c(Cl)cccc2Cl)cc(C(F)(F)F)n1	3.61
O=C(O)CC(C(=O)NC1CCCCC1)C1CCCO1 (stereo not shown)	4.27
Cc1c(C)c2c(OCC(=O)Nc3ccc(CCO)cc3)cc3c(c2oc1=O)CCC(C)(C)O3	2.05
Cc1cnc(C(=O)N2CCCC(N3CCN(c4ccccc4C)CC3)C2)cn1 (stereo not shown)	-0.689
COc1cccc(C(=O)OCCCOC(=O)c2cccc(OC)c2OC)c1OC	12.6
CCOC(=O)C1=C(CC)Nc2ccccc2N=C1NC(=O)c1cc(C)on1	3.86
CC(=O)c1ccc(N2CCN(C(=O)c3cc(-c4ccncc4)nc4ccc(Cl)cc34)CC2)cc1	10.8
O=C(O)COc1ccccc1/C=N/NC(=O)c1cc(-c2ccc(Cl)cc2)nc2ccccc12	8.82
Cc1ccccc1NC(=O)Cn1nnc(-c2ccc(N3CCOCC3)cc2)n1	9.38
CCOCCn1c(CN2CCCCC2)nc2c1c(=O)n(C)c(=O)n2C	16.6
COC(=O)C1C(c2ccccc2)NC(=O)NC1(O)C(F)(F)Cl (stereo not shown)	-1.56
CC(CN1CCCC(C(N)=O)C1)c1ccccc1 (stereo not shown)	14.2
COc1ccc(-n2c(N)c(C(=O)NCc3ccco3)c3nc4ccccc4nc32)cc1OC	6.2
COC(=O)c1c(-c2ccc(C)cc2)csc1NC(=S)NC(=O)c1cc(OC)cc(OC)c1	15.3
C=C(Br)Cn1c(CCC)nc2ccccc21	15.9
O=C(O)C1=C[C@H](C2CC2)C[C@H](OCc2ccc(CO)cc2)O1	14.7
C=CCn1c(CCC)nc2ccccc21	6.27
COc1ccc(-n2nc(C(=O)NCC(=O)N3CCOCC3)c3ccccc3c2=O)c(OC)c1	10.2
CC1=CC2=NC(=O)/C(=C\c3cc(C)n(-c4cccc(Cl)c4)c3C)C(=N)N2O1	-0.238
O=C(N/N=C/c1c[nH]c2ccccc12)C1CC(=O)N(c2ccccc2)C1 (stereo not shown)	8.37
O=C(CCN1C(=O)c2ccccc2C1=O)Nc1ccc(F)cc1	4.3
COc1cc(OC)c2c(c1C(CCN1CCOCC1)c1ccc(N(C)C)cc1)OC(=O)CC2c1ccc(N(C)C)cc1 (stereo not shown)	11.2
CCOC(=O)N1CCN(C(=S)Nc2cc(S(=O)(=O)N3CCOCC3)ccc2Cl)CC1	10.3
c1ccc(-n2c(-c3ccncc3)nnc2-c2ccco2)cc1	-0.483
COc1ccc(N2CCN(CCNC(=O)c3nnc(Cc4c(F)cccc4Cl)o3)CC2)cc1	16.7

Compound	hERG current change (%, negative = inhibition) at 1uM [%]
Cc1c(NC(=O)/C=C/c2cn(-c3ccccc3)nc2-c2ccccc2)c(=O)n(-c2ccccc2)n1C	4.86
COc1ccc(C(=O)NCC(=O)N2CCNC(=O)C2)cc1OC	12.5
CC1(C)CC(=O)/C(=C\c2cccc([N+](=O)[O-])c2)C(C)(C)N1	11.8
COC(=O)c1ccc(NC(=O)c2ccc(NC(=O)C3CCCO3)cc2)cc1 (stereo not shown)	5.5
Cc1cccc(NC(=O)CN2C(=O)CNC2=O)c1	11.4
C/C(=N\NC(N)=S)c1ccc2c(c1)OCCO2	14
Cc1ccc2c(c1)sc1nc(=O)n(-c3ccc(Cl)cc3)c(=O)n12	3.37
COc1ccccc1OCCNC(=O)C1CCCCC1	13
CCCCCCCCS(=O)c1sc2nc3c(cc2c1N)CCCC3 (stereo not shown)	16.1
COc1cc(Cl)ccc1OCc1cc(C(=O)N(C)Cc2nnc(C)o2)no1	10.9
CCOc1ccc2nc(SCC(=O)N(CC(C)C)c3c(N)n(Cc4ccccc4)c(=O)[nH]c3=O)[nH]c2c1	9.81
COc1ccccc1C(=O)NCC(=O)NCCC(c1ccccc1)c1ccccc1	-46.4
CC(C)(C)NC(=O)CN(Cc1ccc(F)cc1)C(=O)Cn1nnc(-c2ccc(F)cc2)n1	6.31
COc1ccc(N(CC2CO2)S(=O)(=O)c2ccc(C)cc2)cc1 (stereo not shown)	13.7
COc1cccc(C(=O)Nc2nc3ccccc3s2)c1	4.68
Cc1cccc(OCCCC(=O)N2CCCCCC2)c1C	12.9
Cc1nn(-c2ncc(C(F)(F)F)cc2Cl)c(=O)n1-c1ccccc1F	1.93
O=C(CCn1nnc2ccccc2c1=O)N[C@@H](Cc1c[nH]c2ccccc12)C(=O)O	11.6
O=C(NCCc1ccc(Cl)cc1Cl)c1cncc(Br)c1	9.91
CCOc1ccc(Cc2c(Cl)nc(N)nc2Cl)cc1	12.9
CCOc1ccc(N(C(=O)CNS(=O)(=O)c2ccccc2)C(CC)C(=O)NCc2ccco2)cc1 (stereo not shown)	4.35
CCCC(NC(=O)c1ccccc1)c1nc2ccccc2n1Cc1ccc(C(=O)OC)o1 (stereo not shown)	1.44
CC1CCN(S(=O)(=O)c2ccc(NC(=O)C3CC(=O)N(c4ccccc4)C3)cc2)CC1 (stereo not shown)	14.8
COc1cccc(C(=O)NC2CCN(CC(=O)Nc3c(C)cc(C)cc3C)CC2)c1	9.75
O=C(c1ccccc1Cl)N1CCC(O)(c2cccnc2)CC1	10.3
O=C(COC(=O)C1CCC1)NCc1ccc(F)cc1	14.2
CCN1CCCC1CNC(=O)Cn1nc(C)n2c(cc3cc(F)ccc32)c1=O (stereo not shown)	14.8
